# From paper PMC4336329 (PLoS ONE, 2015)
# Out of some 310,000 compounds screened, about 2,200 (0.71%) showed an effect of 50% or more. Effects have a minus sign here. This is one part of the list.
# Molecular target: human ether-à-go-go-related gene (hERG) potassium channel (human, UniProt Q12809)
# Test: primary screen, population patch clamp on CHO cells stably expressing hERG
# Sequence of human ether-à-go-go-related gene (hERG) potassium channel (Q12809 whole entry, looked up): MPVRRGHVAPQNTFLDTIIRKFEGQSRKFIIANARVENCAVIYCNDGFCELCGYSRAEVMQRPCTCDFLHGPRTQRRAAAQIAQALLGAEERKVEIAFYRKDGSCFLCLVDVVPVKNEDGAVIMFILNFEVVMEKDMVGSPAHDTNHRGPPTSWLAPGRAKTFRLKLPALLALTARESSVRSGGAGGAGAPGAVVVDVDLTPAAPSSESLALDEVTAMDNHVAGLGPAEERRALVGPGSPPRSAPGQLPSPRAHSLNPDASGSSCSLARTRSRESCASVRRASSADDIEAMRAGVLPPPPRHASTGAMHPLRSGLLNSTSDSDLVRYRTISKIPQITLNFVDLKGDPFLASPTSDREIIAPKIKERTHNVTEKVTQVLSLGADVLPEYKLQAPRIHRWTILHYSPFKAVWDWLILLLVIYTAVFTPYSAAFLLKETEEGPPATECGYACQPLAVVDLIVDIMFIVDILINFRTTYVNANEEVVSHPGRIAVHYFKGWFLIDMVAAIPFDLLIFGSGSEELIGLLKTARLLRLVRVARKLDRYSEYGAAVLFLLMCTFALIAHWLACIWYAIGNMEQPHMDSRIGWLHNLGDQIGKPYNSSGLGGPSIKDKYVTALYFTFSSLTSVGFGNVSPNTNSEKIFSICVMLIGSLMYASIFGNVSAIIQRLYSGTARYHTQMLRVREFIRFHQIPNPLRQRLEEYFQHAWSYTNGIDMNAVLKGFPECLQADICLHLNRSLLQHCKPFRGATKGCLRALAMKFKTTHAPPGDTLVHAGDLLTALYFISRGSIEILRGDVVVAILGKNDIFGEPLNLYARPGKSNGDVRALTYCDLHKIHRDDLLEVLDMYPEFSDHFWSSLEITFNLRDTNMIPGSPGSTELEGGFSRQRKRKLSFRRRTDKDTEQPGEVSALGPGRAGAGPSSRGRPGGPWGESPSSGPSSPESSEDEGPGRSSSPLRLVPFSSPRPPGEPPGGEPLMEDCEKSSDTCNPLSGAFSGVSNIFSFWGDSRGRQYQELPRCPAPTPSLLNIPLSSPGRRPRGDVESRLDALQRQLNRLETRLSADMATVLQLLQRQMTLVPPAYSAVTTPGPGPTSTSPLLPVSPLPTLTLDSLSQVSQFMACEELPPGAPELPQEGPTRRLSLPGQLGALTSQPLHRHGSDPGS
row,SMILES,"hERG current change (%, negative = inhibition) at 1uM [%]"
1,COC(=O)C1=C(C)NC(=S)NC1c1ccc(-c2cc(Cl)ccc2Cl)o1 (centres unmarked),0.473
2,O=[N+]([O-])c1ccccc1/C=C/C=N/n1c(-c2cc(-c3ccccc3)n[nH]2)n[nH]c1=S,3.85
3,C=CCSC(=C(C#N)C#N)c1cc2c([nH]1)CCCC2,7.76
4,O=C(CN(Cc1ccccc1)S(=O)(=O)c1ccc(F)cc1)NCc1ccccn1,7.82
5,Cc1ccc(C(=O)O)cc1NC(=O)C1CCCN1S(=O)(=O)c1cccc2nsnc12 (centres unmarked),-1.27
6,CC1=C(C(=O)Nc2ccccc2)C(c2ccccn2)n2nc(CCCO)nc2N1 (centres unmarked),12.5
7,O=C(NC1CCCCC1)C1CCN(S(=O)(=O)N2CCOCC2)CC1,16.2
8,CCCP(=O)(CC(=O)O)c1ccccc1 (centres unmarked),8.21
9,CC(C)Cn1c(=O)c(C(=O)Nc2cnccn2)c(O)c2ccccc21,5.42
10,Cc1nn(CCCC(=O)Nc2sc3c(c2C#N)CCC3)c(C)c1[N+](=O)[O-],9.76
11,O=S(=O)(NCCSc1ccc(Cl)cc1)c1ccc(F)cc1,18.3
12,Cc1ccc(C(=O)NC(=S)Nc2ccc3[nH]c(=O)[nH]c3c2)cc1C,12.5
13,Cc1c(-c2csc(N)n2)cnn1C,6.03
14,O=C(Nc1ccccc1N1CCOCC1)c1cccc([N+](=O)[O-])c1,2.37
15,N#Cc1c(NC(=O)COC(=O)c2nccnc2N)sc2c1CCCC2,13.3
16,CN1C(=O)/C(=C/C=C2\SCCN2C)OC1=S,12.8
17,O=C(O)CN1C(=O)/C(=C\c2ccccc2OCc2ccc(Cl)cc2Cl)SC1=S,11
18,Cc1ccc(OCC(=O)Nc2ccc(CN3CCCCC3)cc2)c(C)c1,-30.7
19,CCN(CC)S(=O)(=O)c1ccc(O)c(C(=O)OCC(=O)NC2CCCC2)c1,10.3
20,CCc1cc(=O)oc2cc(C)cc(OCC(=O)NCC3CCC(C(=O)O)CC3)c12 (centres unmarked),12.5
21,CC(=O)c1ccc(N2CCN(C(=O)CCC(=O)Nc3ccc4nc(N5CCN(C)CC5)cc(C)c4c3)CC2)cc1,13.6
22,O=C(Nc1ccccc1C(=O)NCC1CCCO1)c1ccccc1 (centres unmarked),-6.15

row,SMILES,"hERG current change (%, negative = inhibition) at 1uM [%]"
1,Br.C1=C(c2ccccc2)N2CCN=C2S1,6.51
2,COc1ccc2nc(/N=C/c3cccc(OC)c3O)sc2c1,3.98
3,CC(C)C(C)(C#N)NC(=O)CSc1ncnc2sc(-c3ccccc3)cc12 (centres unmarked),13.7
4,CCOC(=O)CCS(=O)(=O)c1nc(-c2ccccc2)cc(C(F)(F)F)n1,14.3
5,O=C(O)C1CCCCC1C(=O)Nc1ccc(S(=O)(=O)N2CCCCC2)cc1 (centres unmarked),12.7
6,COC(C/C=C/[C@@H](O)COCc1ccccc1)OC,10.7
7,O=C(CCCCCNC(=O)N1CCn2c1nc1ccccc12)NCCc1ccccc1,17.2
8,COc1cc(C(=O)NNC(=O)c2ccc(NC(=O)C(C)(C)C)cc2)cc(OC)c1OC,11.9
9,CCOC(=O)c1c(/N=C/c2c(O)n(-c3ccc(F)cc3)c(=S)[nH]c2=O)sc2c1CCCC2,9.24
10,COc1ccc(C2=NN(c3nc4ccccc4s3)C(=O)/C2=C\N(C)C)cc1,10.4
11,Cc1ccc(-c2nnn(CC(=O)N(Cc3cccs3)C(C(=O)NC3CCCCC3)c3ccco3)n2)o1 (centres unmarked),-1.64
12,CCc1noc(C)c1C(=O)NNC(=O)c1ccccc1,6.68
13,NC(=O)c1nsc(C(=O)N(c2ccc3c(c2)OCCO3)C(C(=O)NCC2CCCO2)c2ccc(F)cc2)c1N (centres unmarked),14.1
14,Cc1ccc(N2C(=O)C3C(c4ccccc4)N4CCCN4C3(C)C2=O)cc1 (centres unmarked),13.7
15,CCOC(=O)C1CCN(C(=O)c2ccc(OC3CCN(C(=O)CCOC)CC3)cc2)CC1,15
16,Cn1cccc1CC(=O)N/N=C\c1ccccc1,20.6
17,O=S(=O)(c1cccc2nsnc12)N1CCN(Cc2ccccc2)CC1,17.2
18,CC(C)C(NC(=O)c1c(F)cccc1F)C(=O)NCC(c1ccccc1)N(C)C (centres unmarked),7.89
19,COC(=O)c1ccccc1NCC(=O)c1ccc(OC)cc1,14
20,N#C/C(=C/c1ccc([N+](=O)[O-])cc1)C(=O)Nc1ccccc1O,10.4
21,Cc1nc(CNC(=O)CC2C(=O)NCCN2Cc2cccc(Oc3ccccc3)c2)cs1 (centres unmarked),14
22,O=C(CCn1cccc(C(F)(F)F)c1=O)Nc1cccc(C(F)(F)F)c1,1.72

row,SMILES,"hERG current change (%, negative = inhibition) at 1uM [%]"
1,N/C(Cc1ccc(Cl)c(Cl)c1)=N\OC(=O)c1cccs1,13.4
2,c1ccc(-c2noc(-c3cccs3)n2)nc1,7.74
3,COc1cc([N+](=O)[O-])ccc1NC(=O)Nc1cccnc1,3.99
4,COC(=O)Nc1ccc(S(=O)(=O)N(CCO)CC(F)(F)C(F)F)cc1,18.7
5,O=C(/C=C/c1ccccc1)N/C(=C/c1ccccc1)C(=O)Nc1ccc(C(=O)O)cc1,10.1
6,COc1ccc(NC(=O)CSc2nnnn2C2CC3C=CC2C3)cc1 (centres unmarked),9.86
7,CC(C)CN1CCN(Cc2c[nH]c3ccccc23)CC1CCO (centres unmarked),11.2
8,COc1ccc(C(=O)OCC(=O)N(C)C2CCS(=O)(=O)C2)cc1S(=O)(=O)N1CCCc2ccccc21 (centres unmarked),12.3
9,CCn1nc(C)c(CN2CCN(Cc3cccc(OC)c3)C(CCO)C2)c1C (centres unmarked),4.87
10,Cc1ccccc1NS(=O)(=O)c1nnc(NC(=O)c2ccc(Br)cc2)s1,13.4
11,NC(=O)NC(=O)COC(=O)c1ccccc1Oc1ccccc1,11.6
12,NC(=O)Cn1nc(C(F)(F)F)c2c1CCCC2,10.4
13,Nc1c(Cl)c(Cl)nc(C(=O)N/N=C/c2cccnc2)c1Cl,1.63
14,Nn1c(Nc2ccccc2)nc2sc3c(c2c1=O)CCCC3,-8.36
15,C=CCc1ccc(OCC(O)CN2CCc3ccccc3C2)c(OC)c1.Cl (centres unmarked),-42.1
16,COc1ccc(S(=O)(=O)Cc2ccc(C(=O)N3CCC4(CC3)OCCO4)o2)cc1,5.59
17,COc1cccc(NC(=O)[C@@H]2CCCN2C(=O)[C@@H]2Cc3ccccc3CN2C(=O)OC(C)(C)C)c1,15.6
18,COC(=O)C(Cc1csc2ccc(Cl)cc12)NC(=O)c1ccc(Cl)cc1 (centres unmarked),4.73
19,CC1CCN(CCOCCOc2ccccc2-c2ccccc2)CC1,-21.6
20,Cc1ccccc1-n1cnc2c(sc3nc(N4CCOCC4)c4c(c32)CCCC4)c1=O,1.51
21,Cc1ccc(S(=O)(=O)Nc2ccccc2/C=N/c2nc3ccccc3n2C(C)C)cc1,-1.23
22,CCCS(=O)(=O)c1ccc(COC(=O)Cc2ccc([N+](=O)[O-])cc2)cc1,14.1

row,SMILES,"hERG current change (%, negative = inhibition) at 1uM [%]"
1,CN(C)S(=O)(=O)c1ccc(C(=O)NCCN2C(=O)S/C(=C\c3cccnc3)C2=O)cc1,1.77
2,COc1cc(OC)c(OC)cc1/C=N/NC(=O)c1cnccn1,11.4
3,O=C(O)c1ccccc1C(c1ccc(O)cc1)c1ccc(O)cc1,13.8
4,CC(=O)N1CCN(c2cc(N3CCCC3)c(F)cc2[N+](=O)[O-])CC1,10.5
5,CCn1c(COc2ccccc2)nnc1SCC(=O)Nc1ccc2c(c1)OCCO2,7.16
6,CCCN(CCC)C(=O)c1c(C)[nH]c(C(=O)OCC)c1C,11.5
7,CCOC(=O)c1c(C)[nH]c(C(=O)CN2C(=O)NC(C)(c3ccc4ccccc4c3)C2=O)c1C (centres unmarked),3.22
8,COCCn1c(CN(Cc2ccccc2)Cc2ccccc2)nc2c1c(=O)n(C)c(=O)n2C,-10.4
9,CCOc1ccccc1OCC(=O)OCC(=O)c1c(C)[nH]c2ccccc12,8
10,COc1ccc(CNC(=O)[C@H](Cc2c[nH]c3ccccc23)NC(=O)[C@@H]2Cc3ccccc3CN2)cc1,-9.44
11,O=C(Nc1ccc(C(F)(F)F)cc1)C1=NN(C2CCS(=O)(=O)C2)C(=O)CC1 (centres unmarked),1.57
12,COc1ccc(CCNC(=O)COc2ccc(N(C)S(=O)(=O)c3ccc(C)cc3)cc2)cc1,5.94
13,C=COCCn1c(C)c(C(=O)OCC)c2cc(O)ccc21,12.2
14,CC(c1ccccc1)N1CCn2c(nc3cc(NC(=O)c4cccs4)ccc32)C1 (centres unmarked),5.14
15,Cc1ccc(C2CC(=O)C=C(NCc3ccccc3)C2)cc1 (centres unmarked),3.27
16,COc1ccc(NC(=O)CN(C)C(=O)c2ccc(NS(=O)(=O)c3ccc(C)c([N+](=O)[O-])c3)cc2)cc1,11.7
17,CCOC(=O)C1CCCN(Cc2ccccc2C)C1 (centres unmarked),3.79
18,CCc1ccccc1NC(=O)C1CCCN(c2nn3c(=O)cc(C)nc3s2)C1 (centres unmarked),3.57
19,Cc1nnc(NC(=O)CCSc2ccccc2)s1,9.77
20,Cc1ccc(C(=O)NC2CCC(C)CC2)s1 (centres unmarked),8.27
